Measurements from the RNAGym collection of RNA variant scans (doi:10.7554/elife.90254).
The source gives no read counts; variants with many changes may rest on few reads.

B1: OR4K15 (parent)
chain: GUUAACGGUCAUAGGCCAUGGAAACUAGGAGCACCAUUUCGCUGCCAGUGAAGAAAUGAACAAAGAAAAUCUGGGCCAGGCAGGCAUCAAAAGAAAUAGUCUUGCGCUCAACCAGAAAGUCUGUAAUCAUUUUAAGGGUA

Variants of: B1
Assay: self-cleavage, relative activity (ratio to wild type); higher = more cleavage; in vitro, sequencing; the parent is a self-cleaving ribozyme

Row | Variant | self-cleavage
1 | A47G U72A A134G | 0.26
2 | A51G U108A G137U | 0.04
3 | A47G A82G A86G A140G | 0.12
4 | U49A U102C U132A | 1.28
5 | A51G U87C U100C | 2.61
6 | A51G A62U A96U A111G A114G | 0.03
7 | U49G U120C C121U | 1.29
8 | G50U A62G A126U | 1.73
9 | G48A A54G A68U | 1.42
10 | A51U A54G A67G A134G | 1.33
11 | A51G A90G U132C | 2.14
12 | A51G A52G A114U | 0.25
13 | A47G A118U U122C A129G | 0.17
14 | A47U A89U A110G | 0.06
15 | A47U A82G U122A | 0.35
16 | U49C A59G A111G | 0.03
17 | U49A A78G U130C | 0.21
18 | A47U A55C A82U A86G A91G U120C U132C | 0.02
19 | U49C A66G A135G | 1.25
20 | A47U A91G A98G | 0.1
21 | A47U A111G A114U A116U | 0

Row | Variant | self-cleavage
22 | U49A A78U C109U G136U | 0.1
23 | U49C U131C U133C G136A | 1.26
24 | A47U A52G A116G U132A | 0.11
25 | U49A A68C A114G | 0.6
26 | G48U A91G A96G | 0.47
27 | U49C A69G A110G | 0.15
28 | U49A A54G G58A U70A | 1.11
29 | U49G U57C U97C U122G U127C | 1.61
30 | A47U U87C A110U | 0.51
31 | A51G A89G G137U | 1.16
32 | A47G C77U A96G U130C U139C | 2.17
33 | A51G A54U A60G A91G | 0.3
34 | U49C A78C U87A A92G A135G | 0.37
35 | A47U U124C U132A | 0.46
36 | A51G A94G A117G U124C | 0.74
37 | A47U U49C A111G A125C | 0
38 | A51G A56G A94G U131C | 0.88
39 | A47G A78G U87C | 0.33
40 | U49A A51G A52G G104A A126G A129C | 0.01
41 | G48A A78U U133C | 0.62
42 | U49A A90G A110G A126G U132C | 0.05

Row | Variant | self-cleavage
43 | A47G A66G U131C | 1
44 | A51G A66G A69G A118G | 0.67
45 | G50A U87C A94U | 1.84
46 | U49C U103A U108C A114U | 0.01
47 | A47G U70C A110U U131C | 0.07
48 | G48C U103A G123A | 0.36
49 | U49C A63G A64U A116U U122C | 0.19
50 | A47U A52U A60G | 1.42
51 | U49C A68C A82G | 0.23
52 | A47U A63G U130C | 0.3
53 | U49A U87C U131C | 0.86
54 | A51G A62G U139C | 0.84
55 | A47U U70G A110G A118U | 0.07
56 | A47U G50A A59G U108C | 0.01
57 | U49C A86G A110G | 0.04
58 | A47G A78G A95G A96G | 0.24
59 | U49C U72A A116G | 0.13
60 | U49A A52G U87C A94G G104A A111G | 0.02
61 | A51G A66G A82U | 0.31
62 | A47U A51G A125G | 0.16
63 | A47U A94G U102C A114U A135G | 0.02

Row | Variant | self-cleavage
64 | A47U A82G U103C | 1.99
65 | A51G A52G A86G | 1.93
66 | A51G A52G A86U | 0.94
67 | U49A A82U U108C U130C | 0.01
68 | U49C U102C A134G | 1.75
69 | A47U G80C A95G | 0.02
70 | U49C A55U U87C A96G | 1.23
71 | A47G U49C G74U U102C | 0.18
72 | A51G A64G G74A A111G | 0.02
73 | A51G A54G A91G U139A | 0.82
74 | A47U A55G A56G U70C A78U | 0.11
75 | U49A A52U A59G A67G A96G | 1.14
76 | U49C A54G U102C C105U A116G A135U | 0.37
77 | U49C A51G A86G A96U U103C | 0.49
78 | U49C G79U A92G A114U | 0.03
79 | A47G A95G A110G | 0.13
80 | A51G G99A G123C | 0.34
81 | A51U A52G U97C U102A | 0.33
82 | A47U U132C U133C | 0.39
83 | A51G U70C G138A | 0.45
